{
  "source": "the RNAGym collection of RNA variant scans (doi:10.7554/elife.90254)",
  "parents": {"B1": {"name": "LINE1-mini (parent)", "chain": "GGCAGAGCUCAACACAGCGUGGCAAAGUGGCUGUGGCUAGACUGCC"}},
  "note": "Read counts are not given, so values of variants with three or more changes are uncertain.",
  "data": [
    {"variants_of": "B1", "assay": "self-cleavage, relative activity (ratio to wild type); higher = more cleavage; in vitro, sequencing; the parent is a self-cleaving ribozyme", "values": [
      {"variant": "CGCUGAGCUCAACAUAGGGUGCCAAAGUGGCUGUGGUUAGACUGCC", "note": "[G1C A4U C15U C18G G22C C37U]", "self-cleavage": 0.01},
      {"variant": "GGCAGAGCUCACAACAGCGUGGCAAAGUGGCUGUGGCUAGACUGCA", "note": "[A12C C13A C46A]", "self-cleavage": 0.02},
      {"variant": "GGCAGUGCUCAACACAGCCUGCCAAAGUGGCUCUAGCUAGACUGCC", "note": "[A6U G19C G22C G33C G35A]", "self-cleavage": 0.07},
      {"variant": "GCCAGUGCCCAACACAGCGUGGAAAAGUGGCUGUGGCUAUACUGCC", "note": "[G2C A6U U9C C23A G40U]", "self-cleavage": 0.1},
      {"variant": "GGCAGAGCUCACCCCAGCGUGGUAAAGUGGCUGUGGCUAUACUGCC", "note": "[A12C A14C C23U G40U]", "self-cleavage": 0.04},
      {"variant": "GGCAGAGCUCAGCACAGCGUGGCAAGGUGGCUGUGGUUAUACUGCC", "note": "[A12G A26G C37U G40U]", "self-cleavage": 0.06},
      {"variant": "GGCAGAGCUCCAGACAGCGUGGCAAACUGGCUGUGACUAGACUGCC", "note": "[A11C C13G G27C G36A]", "self-cleavage": 0.01},
      {"variant": "GGCAGAGCACAACACCGCGUGGCAAAGUGGGUGUGGCCAGACUGCC", "note": "[U9A A16C C31G U38C]", "self-cleavage": 0.05},
      {"variant": "GGCAGAGAUCAACACAGCGUGGAAAAGUGGCUGUGGUUUGACUGCC", "note": "[C8A C23A C37U A39U]", "self-cleavage": 0.04},
      {"variant": "GGCAGAGCUAAACACAGCUUAGAAAAGUGGCUGUGGCUAGACUGCC", "note": "[C10A G19U G21A C23A]", "self-cleavage": 0.04},
      {"variant": "GGCAGAGCUCAACACAGCGUGGGAAAGUGGCUGUGGCGAGAAUGCC", "note": "[C23G U38G C42A]", "self-cleavage": 0},
      {"variant": "GGCCGAGAUCAACACAGCGUGUGAAAAUGGCUGUGGCUAGAGUGCC", "note": "[A4C C8A G22U C23G G27A C42G]", "self-cleavage": 0.55},
      {"variant": "GUCAGAGCUCAACCCAUCGUGUAAAAGUGUCUGUGGCUAGACUGCC", "note": "[G2U A14C G17U G22U C23A G30U]", "self-cleavage": 0.01},
      {"variant": "GGCAGAGCUCAAUACAAUGAGGCAAAGUGGCUGUGGCUAAACUGCC", "note": "[C13U G17A C18U U20A G40A]", "self-cleavage": 0.01},
      {"variant": "GGCACAGCUGAACCAAGCGUGGCAAAGUGGCUGUGGCUAGACUGCC", "note": "[G5C C10G A14C C15A]", "self-cleavage": 0.04},
      {"variant": "GGAAGAGUUCAACACAGAGUGACAAAGUGUCUGUGGCUAGACAGCC", "note": "[C3A C8U C18A G22A G30U U43A]", "self-cleavage": 0.32},
      {"variant": "GGCAGAGAUCAACACAGCGUGGCAAAGUGGCUGAGCCUAGAGUGCC", "note": "[C8A U34A G36C C42G]", "self-cleavage": 0.09},
      {"variant": "GGCAGAUAUCAACACAGCGUGGCAAAGUGGCUGUGGCUAGCCCGAC", "note": "[G7U C8A A41C U43C C45A]", "self-cleavage": 0.22},
      {"variant": "GGCAGAGCUCAACAACGCGUGGCAAAGUGGCAGUGGCUAGACUGCC", "note": "[C15A A16C U32A]", "self-cleavage": 0.03},
      {"variant": "GGCGUAGCUCAACACAGCGUGGCAAAGUGCCUGUGGCUAGACUGCC", "note": "[A4G G5U G30C]", "self-cleavage": 0.01},
      {"variant": "GGCAGUACUCAACACAGCUUGGCACAGUGGCUGUGGCUACACUGCC", "note": "[A6U G7A G19U A25C G40C]", "self-cleavage": 0.06},
      {"variant": "GGCAGAGCUCAACACCACGUGGCAAAGGGGCUGUGGCUAAUCUGCC", "note": "[A16C G17A U28G G40A A41U]", "self-cleavage": 0.04},
      {"variant": "GGCAGAGCUUAACACAGUGUGGCAAAGUGGCUGUGGCUAGACUGCA", "note": "[C10U C18U C46A]", "self-cleavage": 0.47},
      {"variant": "GGCAGAGCUCAACACAGCGUGGAAAAGUGACUGUGCCUCGACUGCC", "note": "[C23A G30A G36C A39C]", "self-cleavage": 0.07},
      {"variant": "GGCCGAGCUCAACAUAGCUUGGCAAAGUGGCUGUGGCUAGACUGCC", "note": "[A4C C15U G19U]", "self-cleavage": 0.03},
      {"variant": "GGCAGAGCUCAACAUAGCGAGGCAAGGUGGCUAUGGCUAGACUGCC", "note": "[C15U U20A A26G G33A]", "self-cleavage": 1.3},
      {"variant": "GGCAGAGUUCAAGACAGCGUUGCAAAGUCGCUGUGGCGAGAAUGCC", "note": "[C8U C13G G21U G29C U38G C42A]", "self-cleavage": 0.02},
      {"variant": "GGCAGAGAUCAACACAGCCUGGCAAAGCGGCUGUGUCUAGACUGCC", "note": "[C8A G19C U28C G36U]", "self-cleavage": 0.04},
      {"variant": "GCCAGAGCUCAACUCGGCGUGGCUAAGUGGCUAUGGCUAGUCUGCC", "note": "[G2C A14U A16G A24U G33A A41U]", "self-cleavage": 0.08},
      {"variant": "GGCAGAGCUCAACACAGCGUGGCAAAGUGGCUGUGUAUAGACUGGU", "note": "[G36U C37A C45G C46U]", "self-cleavage": 0.03},
      {"variant": "GGCAGAGCUCAACACAGCGUGGCAAAAUAGCUGUGGCUAGAUUACC", "note": "[G27A G29A C42U G44A]", "self-cleavage": 0.15},
      {"variant": "GGCAGAGCUCUACAAAUCGUGGCAAAGUGGGUGUGGCUAGACUGCC", "note": "[A11U C15A G17U C31G]", "self-cleavage": 0.03},
      {"variant": "GGAACAGCUCAACAUAGCCUGGCAAAGUGGCUGUGGCUAGACUGCC", "note": "[C3A G5C C15U G19C]", "self-cleavage": 0.05},
      {"variant": "GGCAAAGCUUAACUCAGCGUGGCAAAUUGGCUGUGGCUAGACUGCC", "note": "[G5A C10U A14U G27U]", "self-cleavage": 0.03},
      {"variant": "AGCAGAGCUCAACCCAGCGGGGCAAAGUGGCUGUGGCUAGACUGCU", "note": "[G1A A14C U20G C46U]", "self-cleavage": 0.09},
      {"variant": "GGCAGGGCUCAACACAGGAUGGCAAAGUGGCUGUGGCAAGACUGCC", "note": "[A6G C18G G19A U38A]", "self-cleavage": 0.01},
      {"variant": "GGAAGAGCUCAACACAGCGUGGCAUAGUGGCUGUGACUAGACUGCC", "note": "[C3A A25U G36A]", "self-cleavage": 0.3},
      {"variant": "GACAGAGCUCAACACAGCGUGGCAAAUUGGCUCUGGCUAGACUGCC", "note": "[G2A G27U G33C]", "self-cleavage": 0.05},
      {"variant": "GGCCGAGCUCAACACAGCGUGGCAAAGUGGCUGUGGAUAGAUUGCC", "note": "[A4C C37A C42U]", "self-cleavage": 0.26},
      {"variant": "GGCAGAGCUCAACACAGCGUGGCAAAGAGGCUGUGGCAAGUCUGCC", "note": "[U28A U38A A41U]", "self-cleavage": 0.08},
      {"variant": "GGCAGAUCUCAACACAGCGUGGCAAAGUCGGUGUGGCUAGACUGCC", "note": "[G7U G29C C31G]", "self-cleavage": 0.07},
      {"variant": "GGCAGAGCUCAACACAGCGUCGCAAGGUGGCUGUGGCUAGACUCCC", "note": "[G21C A26G G44C]", "self-cleavage": 0.2},
      {"variant": "GGCAGAGCUCAACGCAGCGUGGCAAAGUGGCAGCGGCUAGACUGCC", "note": "[A14G U32A U34C]", "self-cleavage": 0.02},
      {"variant": "GGCAGAGCUCAACACAGCGUGGCAAAAUCGCUCUGGCUAGACUGCC", "note": "[G27A G29C G33C]", "self-cleavage": 0.1},
      {"variant": "GGAAGAGCUCAGCACAGCGUGGCAAAGUGGCUGUGGCCAGACUGCC", "note": "[C3A A12G U38C]", "self-cleavage": 0.03},
      {"variant": "GGCGGAGCUCAACACAGCGUGGCAAAGUGGCUGUGGCUAGACUUCU", "note": "[A4G G44U C46U]", "self-cleavage": 0.35},
      {"variant": "GGCAGAGCCCAACACAGCGUGGCAAAGUGGCGGCGGCUAGACCGCC", "note": "[U9C U32G U34C U43C]", "self-cleavage": 0},
      {"variant": "GGCAGAGCUCAACACAGCGUGGAAAAGUUGCUGUGGUUAGACUGCC", "note": "[C23A G29U C37U]", "self-cleavage": 0.04},
      {"variant": "AGCAGAGCUCAACACAGCGUGGCAAAGUGGCUGUGGCUAGUCUGGC", "note": "[G1A A41U C45G]", "self-cleavage": 0.15},
      {"variant": "GGCAGAGCUACACACAGCGUGGCAAAGUGACUGUGGCUAUUCGGCC", "note": "[C10A A11C G30A G40U A41U U43G]", "self-cleavage": 0.03},
      {"variant": "GGGAGAGCUCCACACAGCGUGGCCAGGUGGCUGUGGCUAGACUGCC", "note": "[C3G A11C A24C A26G]", "self-cleavage": 0.01},
      {"variant": "GGUAGAGCUGAACACAGCGUGGCAAAGUGGCUGUGGCUAGACUGUC", "note": "[C3U C10G C45U]", "self-cleavage": 0.04},
      {"variant": "GGAAGAGCUCACCACAGCAUGGCAAAGUGGCUGUGGCUAGACUGCC", "note": "[C3A A12C G19A]", "self-cleavage": 0.02},
      {"variant": "AGAAGAGCUCAACACAGCGUGGCAAAGUGGCCGUGGCGAGACUGCC", "note": "[G1A C3A U32C U38G]", "self-cleavage": 0.41},
      {"variant": "GGCAGAGCUCAGCACAGCAUGGCAAAGUGGUUGUGGCUAGACUGCC", "note": "[A12G G19A C31U]", "self-cleavage": 0.01},
      {"variant": "GGCAGAGCUUAACACAGCGUGGGAAAGUCGCUGUGGCUAGACUGGC", "note": "[C10U C23G G29C C45G]", "self-cleavage": 0.02}
    ]}
  ]
}
